# The IC50 comes from the fitted curve, where viability falls to half of the control; a fit beyond the top or the lowest dose is shown as a bound at that dose. AUC, from the same fit, is the share of area under the viability curve across the 256-fold dose range: 1 means no effect, lower means more sensitive. The top dose, if marked as inferred, is not printed in the source and was worked back from the curve model. For some of these results: Where an entry number is given, a second screen of the drug exists; the two often differ.
# Legend:
# AICAR = compound: NC(=O)c1ncn([C@@H]2O[C@H](CO)[C@@H](O)[C@H]2O)c1N [AICAR]; test: Viability of human cancer cell lines after 72 h of drug (GDSC screen); settings: top dose 2000 µM; top dose inferred
# Method: (§1)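 Human cancer cell lines in 384-well plates, medium with 10% serum, drug for 72 h over a 256-fold dose range (nine 2-fold or five 4-fold steps up to the top dose). Adherent lines were fixed and stained with the nucleic acid dye Syto60, suspension lines read with resazurin; signal relative to control wells, capped at 0 and 100%. One two-parameter sigmoid per drug and line, fitted in a mixed model over all curves with the slope shared within a line.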
# AKT inhibitor VIII = compound: O=c1[nH]c2ccccc2n1C1CCN(Cc2ccc(-c3[nH]c4cc5ncnc5cc4nc3-c3ccccc3)cc2)CC1 [AKT inhibitor VIII]; test: as above; settings: top dose inferred
# Method: as §1
# [1] = top dose 2.56 µM, screen: GDSC drug entry 171
# [2] = top dose 10.24 µM, screen: GDSC drug entry 228
Cell Line,AUC (AICAR),IC50 (AICAR) [µM],AUC (AKT inhibitor VIII; [1]),IC50 (AKT inhibitor VIII; [1]) [µM],AUC (AKT inhibitor VIII; [2]),IC50 (AKT inhibitor VIII; [2]) [µM]
"H3255 (lung adenocarcinoma, adherent)",0.818,1420,0.973,> 2.56,0.881,> 10.2
"HAL-01 (lymphoblastic leukaemia, suspension)",0.66,328,0.987,> 2.56,0.546,0.841
"HARA (lung squamous cell carcinoma, adherent)",0.691,475,0.931,> 2.56,0.722,3.06
"HCC38 (breast, adherent)",0.96,> 2000,0.846,2.09,0.88,> 10.2
"HCC70 (breast, adherent)",0.752,652,0.741,0.77,0.624,1.4
"HCC202 (breast, adherent)",0.722,696,–,–,0.744,4.36
"HCC1143 (breast, adherent)",0.85,> 2000,0.929,> 2.56,0.862,> 10.2
"HCC1187 (breast, suspension)",0.835,1220,0.989,> 2.56,0.803,4.8
"HCC1395 (breast, adherent)",0.956,> 2000,0.972,> 2.56,0.889,> 10.2
"HCC1419 (breast, adherent)",0.852,> 2000,0.848,> 2.56,0.727,3.77
"HCC1428 (breast, adherent)",0.766,802,0.964,> 2.56,0.886,> 10.2
"HCC1500 (breast, adherent)",0.565,190,0.988,> 2.56,0.897,> 10.2
"HCC1569 (breast, adherent)",0.787,1200,0.842,> 2.56,0.613,1.45
"HCC1937 (breast, adherent)",0.872,> 2000,0.908,> 2.56,0.811,6.48
"HCC1954 (breast, adherent)",0.84,1710,0.924,> 2.56,0.733,3.36
"HCC2157 (breast, suspension)",0.603,244,0.9,> 2.56,0.891,> 10.2
"HCC2218 (breast, suspension)",0.936,> 2000,0.91,> 2.56,0.603,1.32
"HCC2998 (large intestine, adherent)",0.873,1820,0.982,> 2.56,0.935,> 10.2
"HCC-15 (lung squamous cell carcinoma, adherent)",0.871,> 2000,0.946,> 2.56,0.894,> 10.2
"HCC-44 (lung adenocarcinoma, adherent)",0.869,1770,0.904,> 2.56,0.832,6.35
"HCC-56 (large intestine, adherent)",0.781,850,0.945,> 2.56,0.698,2.35
"HCC-78 (lung adenocarcinoma, adherent)",0.827,1520,0.971,> 2.56,0.832,8.15
"HCC-827 (lung adenocarcinoma, adherent)",0.854,1960,0.94,> 2.56,0.937,> 10.2
"HCT-15 (large intestine, adherent)",0.882,> 2000,0.863,2.44,0.929,> 10.2
"HCT-116 (large intestine, adherent)",0.881,1910,0.889,> 2.56,0.907,> 10.2
"HD-MY-Z (Hodgkin lymphoma, adherent)",0.867,1820,0.986,> 2.56,0.764,3.73
"HDLM-2 (Hodgkin lymphoma, suspension)",0.732,564,0.968,> 2.56,0.811,5.33

Cell Line,AUC (AICAR),IC50 (AICAR) [µM],AUC (AKT inhibitor VIII; [1]),IC50 (AKT inhibitor VIII; [1]) [µM],AUC (AKT inhibitor VIII; [2]),IC50 (AKT inhibitor VIII; [2]) [µM]
"HDQ-P1 (breast, adherent)",0.815,1370,0.956,> 2.56,0.967,> 10.2
"HEC-1 (endometrium, adherent)",0.94,> 2000,0.931,> 2.56,0.971,> 10.2
"HGC-27 (stomach, adherent)",0.848,1160,0.512,0.171,0.583,1.04
"HL-60 (acute myeloid leukaemia, suspension)",0.629,273,0.98,> 2.56,0.861,7.26
"HMV-II (melanoma, adherent)",0.968,> 2000,0.978,> 2.56,0.879,> 10.2
"HN (head and neck, adherent)",0.675,372,0.966,> 2.56,0.989,> 10.2
"HO-1-u-1 (head and neck, adherent)",0.865,1640,0.934,> 2.56,0.889,> 10.2
"HOP-62 (lung adenocarcinoma, adherent)",0.896,> 2000,0.958,> 2.56,0.867,9.22
"HOP-92 (large cell lung carcinoma, adherent)",0.859,> 2000,0.913,> 2.56,0.982,> 10.2
"HOS (osteosarcoma, adherent)",0.905,1910,0.964,> 2.56,0.95,> 10.2
"HSC-2 (head and neck, adherent)",0.812,971,0.939,> 2.56,0.988,> 10.2
"HSC-4 (head and neck, adherent)",0.793,1270,0.958,> 2.56,0.972,> 10.2
"HT55 (large intestine, adherent)",0.973,> 2000,–,–,0.99,> 10.2
"HT (B-cell lymphoma, suspension)",0.862,1480,0.962,> 2.56,0.841,6.28
"HT-3 (cervix, adherent)",0.733,586,0.958,> 2.56,0.918,> 10.2
"HT-29 (large intestine, adherent)",0.893,> 2000,0.865,2.26,0.948,> 10.2
"HT-115 (large intestine, adherent)",0.976,> 2000,0.985,> 2.56,0.935,> 10.2
"HT-1080 (fibrosarcoma, adherent)",0.872,1560,0.986,> 2.56,0.989,> 10.2
"HT-1197 (bladder, adherent)",0.921,> 2000,0.974,> 2.56,0.948,> 10.2
"HT-1376 (bladder, adherent)",0.839,1720,0.969,> 2.56,0.985,> 10.2
"HUTU-80 (digestive system, adherent)",0.958,> 2000,0.934,> 2.56,0.867,6.73
"Hep 3B2_1-7 (liver, adherent)",0.93,> 2000,0.944,> 2.56,0.987,> 10.2
"Hey (ovary, adherent)",0.851,1400,–,–,0.937,> 10.2
"Hs633T (fibrosarcoma, adherent)",0.969,> 2000,0.975,> 2.56,0.942,> 10.2
"Hs683 (glioma, adherent)",0.966,> 2000,0.921,> 2.56,0.873,10.1
"Hs746T (stomach, adherent)",0.772,1060,0.971,> 2.56,0.746,4.25
"Hs766T (pancreas, adherent)",0.891,> 2000,0.844,> 2.56,0.956,> 10.2

Cell Line,AUC (AICAR),IC50 (AICAR) [µM],AUC (AKT inhibitor VIII; [1]),IC50 (AKT inhibitor VIII; [1]) [µM],AUC (AKT inhibitor VIII; [2]),IC50 (AKT inhibitor VIII; [2]) [µM]
"Hs939-T (melanoma, adherent)",0.983,> 2000,0.978,> 2.56,0.986,> 10.2
"Hs-578-T (breast, adherent)",0.958,> 2000,0.972,> 2.56,0.987,> 10.2
"HuCCT1 (biliary tract, adherent)",0.827,1410,0.94,> 2.56,0.918,> 10.2
"HuH-7 (liver, adherent)",0.935,> 2000,0.936,> 2.56,0.977,> 10.2
"HuO9 (osteosarcoma, adherent)",0.806,1160,0.808,1.5,0.716,2.83
"HuO-3N1 (osteosarcoma, adherent)",0.826,1770,0.922,> 2.56,0.904,> 10.2
"HuP-T3 (pancreas, adherent)",0.776,980,0.929,> 2.56,0.937,> 10.2
"HuP-T4 (pancreas, adherent)",0.931,> 2000,0.979,> 2.56,0.769,4.11
"IA-LM (large cell lung carcinoma, adherent)",0.78,927,0.86,> 2.56,0.876,> 10.2
"IGR-1 (melanoma, adherent)",0.954,> 2000,0.965,> 2.56,0.93,> 10.2
"IGR-37 (melanoma, adherent)",0.967,> 2000,0.986,> 2.56,0.983,> 10.2
"IHH-4 (thyroid, semi-adherent)",0.928,> 2000,0.971,> 2.56,0.977,> 10.2
"IM-9 (myeloma, suspension)",0.951,> 2000,0.992,> 2.56,–,–
"IPC-298 (melanoma, adherent)",0.93,> 2000,0.975,> 2.56,0.966,> 10.2
"IST-MEL1 (melanoma, adherent)",0.933,> 2000,0.913,> 2.56,0.896,> 10.2
"IST-SL1 (small cell lung carcinoma, semi-adherent)",0.949,> 2000,0.962,> 2.56,0.793,4.85
"JEG-3 (urogenital system, adherent)",0.851,1310,0.986,> 2.56,0.991,> 10.2
"JHH-1 (liver, adherent)",0.972,> 2000,0.77,1.06,0.801,5.52
"JHH-2 (liver, adherent)",0.904,> 2000,0.971,> 2.56,0.977,> 10.2
"JHH-4 (liver, adherent)",0.925,> 2000,0.796,1.19,–,–
"JHH-6 (liver, adherent)",0.665,362,0.911,> 2.56,0.987,> 10.2
"JHH-7 (liver, adherent)",0.978,> 2000,0.957,> 2.56,0.972,> 10.2
"JHOS-2 (ovary, adherent)",0.822,1440,–,–,0.91,> 10.2
"JHOS-3 (ovary, adherent)",0.897,> 2000,–,–,0.897,> 10.2
"JHU-011 (head and neck, adherent)",0.631,285,0.873,2.38,0.88,> 10.2

# Source: the supplement of paper PMC4967469
